Measurements taken from the supplement of paper PMC12423691.
Some of the results follow. Binding of human transcription factors and regulators to the viral nucleoprotein by AlphaScreen, crude cell-free proteins, amounts not normalised, one pass. Fold of the Venus control; higher = more signal. No active / inactive call. Single-pass screen; sequences are the whole Swiss-Prot entries looked up by name.

B1: RFX3, P48380 (protein)
chain: MQTSETGSDTGSTVTLQTSVASQAAVPTQVVQQVPVQQQVQQVQTVQQVQHVYPAQVQYVEGSDTVYTNGAIRTTTYPYTETQMYSQNTGGNYFDTQGSSAQVTTVVSSHSMVGTGGIQMGVTGGQLISSSGGTYLIGNSMENSGHSVTHTTRASPATIEMAIETLQKSDGLSTHRSSLLNSHLQWLLDNYETAEGVSLPRSTLYNHYLRHCQEHKLDPVNAASFGKLIRSIFMGLRTRRLGTRGNSKYHYYGIRVKPDSPLNRLQEDMQYMAMRQQPMQQKQRYKPMQKVDGVADGFTGSGQQTGTSVEQTVIAQSQHHQQFLDASRALPEFGEVEISSLPDGTTFEDIKSLQSLYREHCEAILDVVVNLQFSLIEKLWQTFWRYSPSTPTDGTTITESSNLSEIESRLPKAKLITLCKHESILKWMCNCDHGMYQALVEILIPDVLRPIPSALTQAIRNFAKSLEGWLSNAMNNIPQRMIQTKVAAVSAFAQTLRRYTSLNHLAQAARAVLQNTSQINQMLSDLNRVDFANVQEQASWVCQCDDNMVQRLETDFKMTLQQQSTLEQWAAWLDNVMMQALKPYEGRPSFPKAARQFLLKWSFYSSMVIRDLTLRSAASFGSFHLIRLLYDEYMFYLVEHRVAQATGETPIAVMGEFGDLNAVSPGNLDKDEGSEVESEMDEELDDSSEPQAKREKTELSQAFPVGCMQPVLETGVQPSLLNPIHSEHIVTSTQTIRQCSATGNTYTAV
B2: ZNF691, Q5VV52 (protein)
chain: MSLCSPTHSAEMSLFLQGPEEMLPLSSEGSEMGSEKEQSPEPHLPEEGEGGKPWRVDDSEGSWIPPGEKEHGQESLSDELQETHPKKPWQKVTVRARELGDPIAHPRHEADEKPFICAQCGKTFNNTSNLRTHQRIHTGEKPYKCSECGKSFSRSSNRIRHERIHLEEKHYKCPKCQESFRRRSDLTTHQQDHLGKRPYRCDICGKSFSQSATLAVHHRTHLEPAPYICCECGKSFSNSSSFGVHHRTHTGERPYECTECGRTFSDISNFGAHQRTHRGEKPYRCTVCGKHFSRSSNLIRHQKTHLGEQAGKDSS
B3: GLI4, P10075 (protein)
chain: MAALGDIQESPSVPSPVSLSSPGTPGTQHHEPQLHLHGHQHGSPGSSPKVLSQPSDLDLQDVEEVEIGRDTFWPDSEPKPEQAPRSPGSQAPDEGAGGALRSLLRSLPRRARCSAGFGPESSAERPAGQPPGAVPCAQPRGAWRVTLVQQAAAGPEGAPERAAELGVNFGRSRQGSARGAKPHRCEACGKSFKYNSLLLKHQRIHTGEKPYACHECGKRFRGWSGFIQHHRIHTGEKPYECGQCGRAFSHSSHFTQHLRIHNGEKPYKCGECGQAFSQSSNLVRHQRLHTGEKPYACSQCGKAFIWSSVLIEHQRIHTGEKPYECSDCGKAFRGRSHFFRHLRTHTGEKPFACGACGKAFGQSSQLIQHQRVHYRE
B4: NPAS1, Q99742 (protein)
chain: MAAPYPGSGGGSEVKCVGGRGASVPWDFLPGLMVKAPSGPCLQAQRKEKSRNAARSRRGKENLEFFELAKLLPLPGAISSQLDKASIVRLSVTYLRLRRFAALGAPPWGLRAAGPPAGLAPGRRGPAALVSEVFEQHLGGHILQSLDGFVFALNQEGKFLYISETVSIYLGLSQVEMTGSSVFDYIHPGDHSEVLEQLGLRTPTPGPPTPPSVSSSSSSSSSLADTPEIEASLTKVPPSSLVQERSFFVRMKSTLTKRGLHVKASGYKVIHVTGRLRAHALGLVALGHTLPPAPLAELPLHGHMIVFRLSLGLTILACESRVSDHMDLGPSELVGRSCYQFVHGQDATRIRQSHVDLLDKGQVMTGYYRWLQRAGGFVWLQSVATVAGSGKSPGEHHVLWVSHVLSQAEGGQTPLDAFQLPASVACEEASSPGPEPTEPEPPTEGKQAAPAENEAPQTQGKRIKVEPGPRETKGSEDSGDEDPSSHPATPRPEFTSVIRAGVLKQDPVRPWGLAPPGDPPPTLLHAGFLPPVVRGLCTPGTIRYGPAELGLVYPHLQRLGPGPALPEAFYPPLGLPYPGPAGTRLPRKGD
B5: TBR1, Q16650 (protein)
chain: MQLEHCLSPSIMLSKKFLNVSSSYPHSGGSELVLHDHPIISTTDNLERSSPLKKITRGMTNQSDTDNFPDSKDSPGDVQRSKLSPVLDGVSELRHSFDGSAADRYLLSQSSQPQSAATAPSAMFPYPGQHGPAHPAFSIGSPSRYMAHHPVITNGAYNSLLSNSSPQGYPTAGYPYPQQYGHSYQGAPFYQFSSTQPGLVPGKAQVYLCNRPLWLKFHRHQTEMIITKQGRRMFPFLSFNISGLDPTAHYNIFVDVILADPNHWRFQGGKWVPCGKADTNVQGNRVYMHPDSPNTGAHWMRQEISFGKLKLTNNKGASNNNGQMVVLQSLHKYQPRLHVVEVNEDGTEDTSQPGRVQTFTFPETQFIAVTAYQNTDITQLKIDHNPFAKGFRDNYDTIYTGCDMDRLTPSPNDSPRSQIVPGARYAMAGSFLQDQFVSNYAKARFHPGAGAGPGPGTDRSVPHTNGLLSPQQAEDPGAPSPQRWFVTPANNRLDFAASAYDTATDFAGNAATLLSYAAAGVKALPLQAAGCTGRPLGYYADPSGWGARSPPQYCGTKSGSVLPCWPNSAAAAARMAGANPYLGEEAEGLAAERSPLPPGAAEDAKPKDLSDSSWIETPSSIKSIDSSDSGIYEQAKRRRISPADTPVSESSSPLKSEVLAQRDCEKNCAKDISGYYGFYSHS
B6: PPARGC1A, Q9UBK2 (protein)
chain: MAWDMCNQDSESVWSDIECAALVGEDQPLCPDLPELDLSELDVNDLDTDSFLGGLKWCSDQSEIISNQYNNEPSNIFEKIDEENEANLLAVLTETLDSLPVDEDGLPSFDALTDGDVTTDNEASPSSMPDGTPPPQEAEEPSLLKKLLLAPANTQLSYNECSGLSTQNHANHNHRIRTNPAIVKTENSWSNKAKSICQQQKPQRRPCSELLKYLTTNDDPPHTKPTENRNSSRDKCTSKKKSHTQSQSQHLQAKPTTLSLPLTPESPNDPKGSPFENKTIERTLSVELSGTAGLTPPTTPPHKANQDNPFRASPKLKSSCKTVVPPPSKKPRYSESSGTQGNNSTKKGPEQSELYAQLSKSSVLTGGHEERKTKRPSLRLFGDHDYCQSINSKTEILINISQELQDSRQLENKDVSSDWQGQICSSTDSDQCYLRETLEASKQVSPCSTRKQLQDQEIRAELNKHFGHPSQAVFDDEADKTGELRDSDFSNEQFSKLPMFINSGLAMDGLFDDSEDESDKLSYPWDGTQSYSLFNVSPSCSSFNSPCRDSVSPPKSLFSQRPQRMRSRSRSFSRHRSCSRSPYSRSRSRSPGSRSSSRSCYYYESSHYRHRTHRNSPLYVRSRSRSPYSRRPRYDSYEEYQHERLKREEYRREYEKRESERAKQRERQRQKAIEERRVIYVGKIRPDTTRTELRDRFEVFGEIEECTVNLRDDGDSYGFITYRYTCDAFAALENGYTLRRSNETDFELYFCGRKQFFKSNYADLDSNSDDFDPASTKSKYDSLDFDSLLKEAQRSLRR
B7: RXRB, P28702 (protein)
chain: MSWAARPPFLPQRHAAGQCGPVGVRKEMHCGVASRWRRRRPWLDPAAAAAAAVAGGEQQTPEPEPGEAGRDGMGDSGRDSRSPDSSSPNPLPQGVPPPSPPGPPLPPSTAPSLGGSGAPPPPPMPPPPLGSPFPVISSSMGSPGLPPPAPPGFSGPVSSPQINSTVSLPGGGSGPPEDVKPPVLGVRGLHCPPPPGGPGAGKRLCAICGDRSSGKHYGVYSCEGCKGFFKRTIRKDLTYSCRDNKDCTVDKRQRNRCQYCRYQKCLATGMKREAVQEERQRGKDKDGDGEGAGGAPEEMPVDRILEAELAVEQKSDQGVEGPGGTGGSGSSPNDPVTNICQAADKQLFTLVEWAKRIPHFSSLPLDDQVILLRAGWNELLIASFSHRSIDVRDGILLATGLHVHRNSAHSAGVGAIFDRVLTELVSKMRDMRMDKTELGCLRAIILFNPDAKGLSNPSEVEVLREKVYASLETYCKQKYPEQQGRFAKLLLRLPALRSIGLKCLEHLFFFKLIGDTPIDTFLMEMLEAPHQLA
B8: ZFP36L1, Q07352 (protein)
chain: MTTTLVSATIFDLSEVLCKGNKMLNYSAPSAGGCLLDRKAVGTPAGGGFPRRHSVTLPSSKFHQNQLLSSLKGEPAPALSSRDSRFRDRSFSEGGERLLPTQKQPGGGQVNSSRYKTELCRPFEENGACKYGDKCQFAHGIHELRSLTRHPKYKTELCRTFHTIGFCPYGPRCHFIHNAEERRALAGARDLSADRPRLQHSFSFAGFPSAAATAAATGLLDSPTSITPPPILSADDLLGSPTLPDGTNNPFAFSSQELASLFAPSMGLPGGGSPTTFLFRPMSESPHMFDSPPSPQDSLSDQEGYLSSSSSSHSGSDSPTLDNSRRLPIFSRLSISDD
B9: TRIM27, P14373 (protein)
chain: MASGSVAECLQQETTCPVCLQYFAEPMMLDCGHNICCACLARCWGTAETNVSCPQCRETFPQRHMRPNRHLANVTQLVKQLRTERPSGPGGEMGVCEKHREPLKLYCEEDQMPICVVCDRSREHRGHSVLPLEEAVEGFKEQIQNQLDHLKRVKDLKKRRRAQGEQARAELLSLTQMEREKIVWEFEQLYHSLKEHEYRLLARLEELDLAIYNSINGAITQFSCNISHLSSLIAQLEEKQQQPTRELLQDIGDTLSRAERIRIPEPWITPPDLQEKIHIFAQKCLFLTESLKQFTEKMQSDMEKIQELREAQLYSVDVTLDPDTAYPSLILSDNLRQVRYSYLQQDLPDNPERFNLFPCVLGSPCFIAGRHYWEVEVGDKAKWTIGVCEDSVCRKGGVTSAPQNGFWAVSLWYGKEYWALTSPMTALPLRTPLQRVGIFLDYDAGEVSFYNVTERCHTFTFSHATFCGPVRPYFSLSYSGGKSAAPLIICPMSGIDGFSGHVGNHGHSMETSP

What follows are binders tested against nucleoprotein N of Crimean-Congo hemorrhagic fever virus (assay: AlphaScreen luminescence signal relative to Venus negative control (fold); higher = stronger binding to CCHFV N).
Protocol: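 AlphaScreen binding of cell-free made, FLAG-GST-tagged human transcription factors and regulators (crude translation products) to biotinylated N protein; signal as fold of the FLAG-GST-Venus control. One pass.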
B1 gave an AlphaScreen luminescence signal of 1.81. For B2, the AlphaScreen luminescence signal was 1.49. B3 showed an AlphaScreen luminescence signal of 1.4. B4 showed an AlphaScreen luminescence signal of 3.12. For B5, the AlphaScreen luminescence signal was 2.19. For B6, the AlphaScreen luminescence signal was 1.53. B7 was tested, and the AlphaScreen luminescence signal was 4. B8 was tested, and the AlphaScreen luminescence signal was 41.3. With B9 the AlphaScreen luminescence signal was 2.47.
